Structures can show the parent of a compound that is named as a salt. The list shows a part of the results. Cut-off read from the data, not from the text of the source: active = 0.5 or less and inactive = the rest. Repeats are few or missing, and single values can be far off.
Assays:
Conditions in all cases: 50 µM; 24 h
[1] = test system: HeLa VPS33A reporter cells; test: relative cell viability (CellMask signal) vs DMSO (fraction of DMSO); higher = less cytotoxic;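 note: primary screen of an FDA-approved drug library in HeLa reporter cells in 96-well format, CellMask signal normalized to DMSO-treated wells set as 1, under 0.5 deemed highly cytotoxic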
[2] = test system: HeLa VPS33A R498W KI + HA-SDC1-FLAG; test: relative GAG core protein HA-SDC1 amount per cell number vs DMSO (fraction of DMSO); higher = more SDC1 (GAG core protein);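 note: HA-SDC1 level read out by In-Cell Western staining with an anti-HA antibody against the N-terminal tag, screening FDA-approved library drugs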
[3] = test system: HeLa VPS33A KO + NLuc-VPS33A R498W; test: relative mutant VPS33A R498W amount (NanoLuc luminescence) vs DMSO (fraction of DMSO); HeLa model of a glycosaminoglycan (GAG) storage disease; KI is knock-in and KO knock-out; SDC1 is syndecan 1; higher = higher mutant VPS33A level;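 note: screen of an FDA-approved drug library, NanoLuc luminescence read after lysing the treated cells, taken as a measure of mutant VPS33A protein stability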

Structure (SMILES) | relative cell viability [1] | relative GAG core protein HA-SDC1 amount per cell number [2] | relative mutant VPS33A R498W amount [3]
O=C(O)CCCC[C@@H]1CCSS1 [(R)-(+)-1,2-Dithiolane-3-pentanoic acid] | 0.966 | inactive: 1.03 | 1.67
CN(C)CC/C=C1/c2ccccc2COc2ccc(CC(=O)O)cc21 [Olopatadine HCl] | 1.04 | inactive: 0.953 | 1.26
O=P(O)(O)C(O)(Cc1cccnc1)P(=O)(O)O [Risedronate Sodium] | 0.968 | inactive: 1.45 | 1.12
Cc1ccccc1N1C(=O)c2cc(S(N)(=O)=O)c(Cl)cc2NC1C (stereo not drawn) [Metolazone] | 0.939 | inactive: 0.924 | 0.97
CO[C@H]1/C=C/O[C@@]2(C)Oc3c(C)c(O)c4c(O)c(c(/C=N/N5CCN(C)CC5)c(O)c4c3C2=O)NC(=O)/C(C)=C\C=C\[C@H](C)[C@H](O)[C@@H](C)[C@@H](O)[C@@H](C)[C@H](OC(C)=O)[C@@H]1C [Rifampin] | 1.07 | inactive: 0.75 | 0.993
CC(=O)O[C@]1(C(C)=O)CC[C@H]2[C@@H]3C=C(Cl)C4=CC(=O)[C@@H]5C[C@@H]5[C@]4(C)[C@H]3CC[C@@]21C [Cyproterone Acetate] | 1.04 | inactive: 0.569 | 0.594
O=c1n(CCCN2CCN(c3cccc(Cl)c3)CC2)nc2ccccn12 [Trazodone HCl] | 1.06 | inactive: 0.828 | 0.779
Clc1cccc(Cl)c1NC1=NCCN1 [Clonidine HCl] | 1.31 | inactive: 0.788 | 1.1
COc1ccc(C(=O)c2ccccc2)c(O)c1 [Oxybenzone] | 1.06 | inactive: 0.718 | 0.862
O=C1CCCC(=O)C1C(=O)c1ccc(C(F)(F)F)cc1[N+](=O)[O-] [Nitisinone] | 1 | inactive: 0.845 | 0.984
CO[C@@H]1[C@H](N(C)C(=O)c2ccccc2)C[C@H]2O[C@]1(C)n1c3ccccc3c3c4c(c5c6ccccc6n2c5c31)C(=O)NC4 [Midostaurin (PKC412)] | 1 | inactive: 1.29 | 0.481
CCn1cc(C(=O)O)c(=O)c2cc(F)c(N3CCNCC3)nc21 [Enoxacin (Penetrex)] | 1.07 | inactive: 0.576 | 0.607
C[C@]12CC[C@@H]3c4ccc(OS(=O)(=O)O)cc4CC[C@H]3[C@@H]1CCC2=O [Estropipate] | 1.04 | inactive: 0.828 | 1.14
Cc1ccsc1C(=CCCN1CCC[C@@H](C(=O)O)C1)c1sccc1C [Tiagabine hydrochloride] | 0.989 | inactive: 0.674 | 1.02
Cn1c(=O)cc(N2CCC[C@@H](N)C2)n(Cc2cc(F)ccc2C#N)c1=O [Trelagliptin] | 1.21 | inactive: 1.09 | 1.33
CCCSc1nc(N[C@@H]2C[C@H]2c2ccc(F)c(F)c2)c2nnn([C@@H]3C[C@H](OCCO)[C@@H](O)[C@H]3O)c2n1 [Ticagrelor] | 0.947 | inactive: 0.783 | 1.21
Cc1cccc(C#Cc2ccccc2)n1 | 0.966 | inactive: 0.766 | 0.64
Nc1ncnc2c1ncn2[C@@H]1O[C@H](COP(=O)(O)OP(=O)(O)O)[C@@H](O)[C@H]1O [Adenosine-5'-diphosphate] | 1.26 | inactive: 0.801 | 2.18
Cc1ncc(C[n+]2csc(CCO)c2C)c(N)n1 [Thiamine HCl (Vitamin B1)] | 1.07 | inactive: 0.878 | 1.08

Structure (SMILES) | relative cell viability [1] | relative GAG core protein HA-SDC1 amount per cell number [2] | relative mutant VPS33A R498W amount [3]
CC(C(=O)O)c1cccc(Oc2ccccc2)c1 (stereo not drawn) [Fenoprofen calcium hydrate] | 1.29 | inactive: 0.687 | 0.58
NCCC(O)(P(=O)(O)O)P(=O)(O)O [Pamidronate] | 0.754 | inactive: 1.19 | 1.08
NCCC(=O)O [beta-Alanine] | 0.996 | inactive: 0.951 | 0.96
Nc1cccc2c1C(=O)N(C1CCC(=O)NC1=O)C2=O (stereo not drawn) [Pomalidomide (CC-4047)] | 1.22 | inactive: 1.1 | 0.933
COc1cc2ccc(=O)oc2cc1O [Scopoletin] | 0.98 | inactive: 0.811 | 1.16
CN(Cc1ccc(C(C)(C)C)cc1)Cc1cccc2ccccc12 [Butenafine HCl] | 1.01 | inactive: 0.641 | 0.645
Nc1nc2[nH]cnc2c(=S)[nH]1 [Thioguanine] | 0.718 | inactive: 0.589 | 1.64
CO/N=C(\C(=O)N[C@@H]1C(=O)N2C(C(=O)O)=C(CSc3nc(=O)c(O)nn3C)CS[C@H]12)c1csc(N)n1 [Ceftriaxone Sodium Trihydrate] | 1.04 | inactive: 1.03 | 1.23
CCCCC(=O)N(Cc1ccc(-c2ccccc2-c2nnn[nH]2)cc1)[C@H](C(=O)O)C(C)C.CCOC(=O)[C@H](C)C[C@@H](Cc1ccc(-c2ccccc2)cc1)NC(=O)CCC(=O)O | 1.02 | inactive: 0.725 | 1.2
OCCOCCN1CCN(C2=Nc3ccccc3Sc3ccccc32)CC1 [Quetiapine Fumarate] | 1.03 | active: 0.231 | 0.224
CC(=O)O[C@]1(C(C)=O)CC[C@H]2[C@@H]3CCC4=CC(=O)CCC4=C3[C@@H](c3ccc(N(C)C)cc3)C[C@@]21C [Ulipristal acetate] | 1.19 | active: 0.293 | 0.493
C[N+](C)(C)CCO.[Cl-] [Choline Chloride] | 0.997 | inactive: 0.78 | 1.05
CC[C@H]1OC(=O)[C@H](C)[C@@H](O[C@H]2C[C@@](C)(OC)[C@@H](O)[C@H](C)O2)[C@H](C)[C@@H](O[C@@H]2O[C@H](C)C[C@H](N(C)C)[C@H]2O)[C@](C)(O)C[C@@H](C)/C(=N\OCOCCOC)[C@H](C)[C@@H](O)[C@]1(C)O [Roxithromycin] | 1.02 | inactive: 0.857 | 1.08
Cc1c(Nc2ncccc2C(=O)O)cccc1C(F)(F)F [Flunixin Meglumin] | 1.19 | active: 0.323 | 1.3
Nc1[nH]cnc2ncnc1-2 [Adenine HCl] | 0.853 | inactive: 1.09 | 1.76
COc1cc2nccc(Oc3ccc(NC(=O)C4(C(=O)Nc5ccc(F)cc5)CC4)cc3)c2cc1OC | 1.22 | inactive: 1.17 | 1.07
O=C(O)c1ccc(O)c(O)c1 [3,4-Dihydroxybenzoic acid] | 0.988 | inactive: 0.84 | 1.22
O=C(NS(=O)(=O)c1ccc(Br)s1)c1ccc(Cl)cc1Cl [Tasisulam] | 1.12 | inactive: 0.944 | 0.833
COc1ccc2ccc(=O)oc2c1CC=C(C)C [Osthole] | 1.01 | inactive: 1.02 | 1.34

Structure (SMILES) | relative cell viability [1] | relative GAG core protein HA-SDC1 amount per cell number [2] | relative mutant VPS33A R498W amount [3]
Oc1ccc(C2CNCCc3c2cc(O)c(O)c3Cl)cc1 (stereo not drawn) [Fenoldopam (mesylate)] | 0.913 | inactive: 0.696 | 1.25
OC[C@H]1O[C@H](OCC2O[C@@H](O)[C@H](O)[C@@H](O)[C@@H]2O)[C@H](O)[C@@H](O)[C@H]1O (stereo partly drawn) [Melibiose] | 1.08 | inactive: 0.85 | 1.33
CS(=O)(=O)c1ccc([C@@H](O)[C@@H](CF)NC(=O)C(Cl)Cl)cc1 [Florfenicol] | 0.904 | inactive: 0.958 | 1.04
CC(C)OC(=O)C(C(=O)OC(C)C)=C1SC=CS1 [Malotilate] | 0.892 | inactive: 0.655 | 0.581
CCCc1nn(C)c2c(=O)[nH]c(-c3cc(S(=O)(=O)N4CCN(C)CC4)ccc3OCC)nc12 [Sildenafil Citrate] | 0.996 | inactive: 0.948 | 0.852
Cn1nnc(-c2ccc(-c3ccc(N4C[C@H](CO)OC4=O)cc3F)cn2)n1 [Tedizolid] | 1.14 | inactive: 1.05 | 0.675
Nc1ccn([C@@H]2O[C@H](CO)[C@@H](O)C2(F)F)c(=O)n1 [Gemcitabine HCl] | 1.05 | inactive: 1.05 | 0.782
C=CC[N+]1([C@H]2C[C@H]3[C@@H]4CC[C@H]5C[C@H](O)[C@@H](N6CCOCC6)C[C@]5(C)[C@H]4CC[C@]3(C)[C@H]2OC(C)=O)CCCC1 [Rocuronium Bromide] | 1.5 | inactive: 0.837 | 1.02
O[C@H]1[C@H](O)[C@@H](O)[C@H](O)[C@@H](O)[C@H]1O [myo-Inositol] | 0.961 | inactive: 0.908 | 1.35
N[C@@H]1CCCCN(c2c(F)cc3c(=O)c(C(=O)O)cn(C4CC4)c3c2Cl)C1 [Besifloxacin HCl] | 0.969 | inactive: 0.948 | 0.558
COc1cc(-c2coc3cc4c(c(OC)c3c2=O)OCO4)cc(OC)c1OC [Irisflorentin] | 1.02 | inactive: 0.758 | 1.12
CN(C)CCC(c1ccccc1)c1ccccn1 (stereo not drawn) [Pheniramine Maleate] | 0.839 | inactive: 1.08 | 1.26
CC(/C=C1\SC(=S)N(CC(=O)O)C1=O)=C\c1ccccc1 [Epalrestat] | 0.865 | inactive: 1.1 | 1.2
CC(=O)N(CC(O)CO)c1c(I)c(C(=O)NCC(O)CO)c(I)c(C(=O)NCC(O)CO)c1I (stereo not drawn) [Iohexol] | 0.967 | inactive: 0.917 | 1.35
NCCCNCCCCNCCCN [Spermine] | 0.976 | inactive: 1.08 | 1.44
O=C(O)CCc1nc(-c2ccccc2)c(-c2ccccc2)o1 [Oxaprozin] | 0.857 | inactive: 0.806 | 1.18
CC(C)[C@H](O)C(=O)N[C@@H](C)C(=O)N[C@@H]1C(=O)N(C)CCc2ccccc21 | 1.04 | inactive: 0.693 | 6.97
O=C1CCC(N2C(=O)c3ccccc3C2=O)C(=O)N1 (stereo not drawn) [Thalidomide] | 1.08 | inactive: 1.29 | 1.22
